This is an account of results in ChEMBL document CHEMBL4888484, “Replenishing the malaria drug discovery pipeline: Screening and hit evaluation of the MMV Hit Generation Library 1 (HGL1) against asexual blood stage Plasmodium falciparum ,using a nano luciferase reporter read-out” (2022).

Among all 150,000 compounds or so, about 540 (0.36%) showed an effect of 50% or more. The list shows a part of the results.

In the experiment the test system is Plasmodium falciparum. As to the kind of experiment: Primary screen in NF54 nanoGlo assay, in single point, at 2uM, 72h; a lower Z score goes with more inhibition. The format is functional, Erythrocyte. The settings on record: timepoint 72 hour.
Usually % Inhibition stands for the change of the read-out against control, counted positive when it falls. In the case of `COc1c2c(cc3c1OCO3)CCN(C)C(C(=O)c1ccc(C)c(NC(=O)c3ccccc3)c1)=C2`, the “% Inhibition” value worked out at 1% and the Z score was -0.23.

As for `Cc1cc(CNC(=O)c2cc[nH]c2C)ccc1S(C)(=O)=O`, the “% Inhibition” value worked out at 35% and the Z score is listed as -3.95.

Consider `CC1(C)[C@@H]2CCC13CS(=O)(=O)N(CCOCC(F)(F)F)[C@H]3C2`, for which the “% Inhibition” value was -14% and the Z score stood at 2.26.

For the compound `CCCc1cc(C(=O)N(Cc2ccco2)C[C@H]2CCCO2)no1`, the “% Inhibition” value is given as -1% and the Z score came out at 0.15.

`CN(Cc1cnns1)[C@@H](C(=O)O)c1cccc(Br)c1`: the “% Inhibition” value is recorded as -6% and the Z score is 1.18.

In the case of `COc1cccc(-c2ccc(N3CCN(C(=O)CN(Cc4ccc5c(c4)OCO5)C(=O)c4ccc(F)cc4)CC3)nn2)c1`, the “% Inhibition” value is given as -8% and the Z score was 1.32.

With `CC[C@H](C)N(CC#Cc1ccccc1)Cc1ccc(C#CCO)s1`, the “% Inhibition” value is -8% and the Z score came out at 1.56.

For the compound `CC(NCC(O)Cn1c(-c2ccccc2)c(-c2ccccc2)c2ccc3ccccc3c21)c1ccccc1` (stereo unspecified), the “% Inhibition” value turned out to be 88% and the Z score was -10.69.

As to `CCN(CCOC)c1nc(N)nc(C(F)F)n1`, the “% Inhibition” value worked out at 3% and the Z score is given as -0.46.

As to `CCc1cnc(C)nc1N1CCN(Cc2cccc3nsnc23)CC1`, the “% Inhibition” value is -5% and the Z score came out at 0.77.

With `CCCn1cc(-c2ccnc(NCCCc3nnn[nH]3)n2)c(C)n1`, the “% Inhibition” value stood at 5% and the Z score was -0.84.

For the compound `O=C(CC1CCCCC1)NCc1ccccn1`, the “% Inhibition” value is reported as -4% and the Z score was determined as 0.54.

In the case of `Cn1c(=O)c2c(ncn2Cc2nnc(-c3cccs3)o2)n(C)c1=O`, the “% Inhibition” value is reported as -6% and the Z score was determined as 1.09.

Turning to `Cc1n[nH]cc1CN(C)C(=O)c1n[nH]c(C)c1Cl`, the “% Inhibition” value is reported as -14% and the Z score stood at 1.26.

Turning to `CCNC(=O)[C@@H]1CC[C@](C)(C(=O)NCc2ccncc2C)C1(C)C`, the “% Inhibition” value was found to be 0% and the Z score is reported as -0.05.

For `Cn1ncc2c(NCC3(C(N)=O)CCOCC3)ccnc21`, the “% Inhibition” value is -4% and the Z score was found to be 0.42.

Consider `c1csc([C@@H]2NCCOc3ccccc32)c1`, for which the “% Inhibition” value was -13% and the Z score amounted to 1.73.

As to `Cn1c(=O)c2c(ncn2Cc2noc(-c3cccs3)n2)n(C)c1=O`, the “% Inhibition” value is on record as -18% and the Z score came out at 3.47.

For `CCCCCC(C)NC(=O)C1CCCN1` (stereo unspecified), the “% Inhibition” value is reported as 1% and the Z score is -0.15.

With `Cc1cnn(CCC(=O)N2CCC[C@H](n3cccn3)C2)c1`, the “% Inhibition” value is recorded as -17% and the Z score stood at 2.32.

Turning to `Cc1ccc2c(c1C)OC[C@@H]2NCc1cc(C(N)=O)cs1`, the “% Inhibition” value is -3% and the Z score is 0.31.

With `CCC(=O)N1CCCCC1C(=O)N1CCCC2(C1)OCc1ccccc12` (stereo unspecified), the “% Inhibition” value is on record as -2% and the Z score was 0.41.

In the case of `CNc1nc2c(c(C(=O)N3CCCC3)n1)CN(C(=O)Nc1ccc(C)cc1)CC2`, the “% Inhibition” value is recorded as -1% and the Z score is recorded as 0.21.

`O=C1C[C@H](C(=O)NCc2cccnc2N2CCCCCCC2)CN1`: the “% Inhibition” value is recorded as -20% and the Z score is given as 1.91.

In the case of `O=C(Nc1nccc2sccc12)[C@@H]1CCCO1`, the “% Inhibition” value is 8% and the Z score is reported as -0.75.

For the compound `CO[C@@H]1C[C@@H](c2ncn[nH]2)N(C(=O)c2cn[nH]c2C)C1`, the “% Inhibition” value is given as -6% and the Z score is on record as 0.8.

Consider `CCc1[nH]nc(-c2ccc(OC)cc2OC)c1NC(=O)Nc1ccc(F)cc1F`, for which the “% Inhibition” value is -13% and the Z score turned out to be 1.17.

Turning to `Fc1ccc(-c2cccc(C3CCC3)c2)c2cc[nH]c12`, the “% Inhibition” value is recorded as -5% and the Z score came to 0.93.

Turning to `O=C(N[C@H]1C[C@@H]2C[C@H]1N(C(=O)c1ccccc1C(F)(F)F)C2)c1cccnc1`, the “% Inhibition” value stood at 35% and the Z score is recorded as -3.96.

In the case of `Cc1cnccc1NCCn1ccnc1-c1nc2ccccc2n1C`, the “% Inhibition” value is recorded as -7% and the Z score came to 1.17.

Turning to `COCc1c(C(=O)N(C)Cc2ccco2)c(=O)cc(C)n1CC1CCCCC1`, the “% Inhibition” value was -7% and the Z score stood at 0.8.

`CCC(C(=O)Nc1ccc2c(c1)CN(CCc1ccccc1)C(=O)C(C)O2)c1ccccc1` (stereo unspecified): the “% Inhibition” value was -7% and the Z score is listed as 0.66.

Regarding `COCCOCCNC(=O)c1ncsc1Nc1ccccc1`, the “% Inhibition” value is on record as 1% and the Z score is on record as -0.06.

With `OCc1cc2n(n1)CCCN(Cc1nc(C(F)(F)F)no1)C2`, the “% Inhibition” value was -5% and the Z score is reported as 0.96.

Turning to `CC1(c2cc(NC(=O)N[C@H]3CCN(CC(F)F)C3)no2)CCCC1`, the “% Inhibition” value was -6% and the Z score is 0.97.

Consider `Cc1nnsc1CNC(=O)[C@]1(C)CCCO1`, for which the “% Inhibition” value is on record as -7% and the Z score is 1.3.

Take `c1ccc(Oc2ccc(-c3csc4nc5ccccc5n34)cc2)cc1`: the “% Inhibition” value is 34% and the Z score was -0.48.

Regarding `O=C(N[C@H]1CCOC[C@H]1C1CCOCC1)c1ccccc1-c1ccccc1`, the “% Inhibition” value is on record as -3% and the Z score came to 0.49.

As to `CC[C@@H](CO)NC(=O)COc1ccccc1`, the “% Inhibition” value is -3% and the Z score was 0.43.

With `COc1cccc(Cl)c1CC(=O)NC1(C#N)CCOCC1`, the “% Inhibition” value is reported as 5% and the Z score is given as -0.55.

`COc1ccc(-c2nnc(N3CCC[C@H](C(N)=O)C3)s2)cc1`: the “% Inhibition” value is 6% and the Z score is given as -0.8.

Regarding `O=C(c1cccc2c1CCOC2)N1CCC[C@H](n2ccnn2)C1`, the “% Inhibition” value was determined as 5% and the Z score was -0.84.

Take `COCCN1C(=O)[C@H]2C(C(=O)Nc3ccc(Cl)cc3)[C@H]3C=C[C@@]2(O3)C1C(=O)NC1CCCC(C)C1C` (stereo partly specified): the “% Inhibition” value was found to be 0% and the Z score is recorded as 0.
